According to the supplement of paper PMC4723716:
± gives the uncertainty stated by the source. In all, about 9,900 compounds were measured (“viability index relative to DMSO control”: median about 1, lowest 2% from about 0.85 on). This is one part of the list.

Tested on: Plasmodium falciparum NF54 stage V gametocytes
Test: viability index relative to DMSO control (fraction); higher = less gametocyte killing
Conditions: 2.5 µM, incubation time: 72 h
Method in brief: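 Compound at 2.5 µM was incubated for 72 hr at 37°C under low oxygen with P. falciparum NF54 stage V gametocytes (0.75% gametocytemia, 1.25% hematocrit, 10 µl, serum-free screening medium) in 1,536-well plates. Staining used 3 µl of 2.5 µM MitoTracker Red CMXRos plus 0.13% saponin for one to two hours, and red particles of 20–70 µm2 were counted in one imaged field per well. Each viability index is that count relative to the plate mean of solvent-only wells.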

[1] = library set: Broad Institute DOS

| Compound | viability index [1] | viability index (library set: Broad Institute Blood Stage) |
| --- | --- | --- |
| O=C(Nc1ccc(C(F)(F)F)cc1)Nc1ccc2c(c1)[C@@H]1C[C@@H](CC(=O)N3CCc4ccccc4C3)O[C@@H](CO)[C@@H]1O2 | 1.01 ± 0.022 |  |
| COc1cccc(C#Cc2ccc([C@@H]3[C@H](CO)N4C(=O)CN(C(=O)Cc5cccnc5)C[C@@H]34)cc2)c1 | 0.904 ± 0.094 |  |
| O=C(c1ccccc1)N1CC(=O)N2[C@H](CO)[C@@H](c3ccc(-c4ccccc4)cc3)[C@H]2C1 | 1.018 ± 0.0095 |  |
| CCS(=O)(=O)Nc1ccc2c(c1)C(=O)N(C)[C@@H]1CC[C@@H](CC(=O)N[C@@H]3CCN(Cc4ccccc4)C3)O[C@@H]1CO2 | 1.11 ± 0.14 |  |
| O=C(C[C@H]1C[C@H]2c3cc(NC(=O)C4CCC4)ccc3O[C@H]2[C@H](CO)O1)NC1CCCC1 | 1.07 ± 0.043 |  |
| COc1cccc(-c2ccc([C@@H]3[C@@H]4CN(C(=O)Nc5ccccc5F)C[C@H]3N4)cc2)c1 | 1.05 ± 0.11 |  |
| C[C@H]1CN([C@@H](C)CO)C(=O)Cc2cc(NC(=O)C3CC3)ccc2O[C@H]1CN(C)S(=O)(=O)c1cn(C)cn1 | 0.971 ± 0.036 |  |
| COc1ccccc1CNC(=O)C[C@H]1C[C@H]2c3cc(NC(=O)C4CCC4)ccc3O[C@H]2[C@H](CO)O1 | 1.08 ± 0.043 |  |
| COc1cccc(NC(=O)N2CC(=O)N3[C@H](CO)[C@H](c4ccc(C#CCC5CCCC5)cc4)[C@@H]3C2)c1 | 1.1 ± 0.045 |  |
| CN(C[C@@H]1[C@@H](c2ccccc2)[C@H](CO)N1Cc1ccccn1)S(C)(=O)=O | 1.057 ± 0.0077 |  |
| O=C(C[C@H]1C[C@@H]2c3cc(NC(=O)C4CCOCC4)ccc3O[C@@H]2[C@@H](CO)O1)NCCN1CCCCC1 | 1.1 ± 0.039 |  |
| COc1cccc(NC(=O)Nc2ccc3c(c2)C(=O)N(C)C[C@H](OC)[C@H](C)CN(CC2CC2)[C@@H](C)CO3)c1 | 0.9936 ± 0.008 |  |
| C[C@@H]1CN([C@H](C)CO)C(=O)c2cccc(NC(=O)c3nc4ccccc4s3)c2O[C@H]1CN(C)C(=O)NC1CCCCC1 |  | 0.867 ± 0.054 |
| CC(C)C#Cc1ccc([C@@H]2[C@H](CO)N3C(=O)CN(S(=O)(=O)c4ccccc4)C[C@@H]23)cc1 | 1.08 ± 0.016 |  |
| CCS(=O)(=O)N1CC2(C1)[C@@H](c1ccccc1)[C@@H](CO)N2Cc1ccc(F)cc1 | 1.07 ± 0.015 |  |
| C[C@H]1CN([C@@H](C)CO)C(=O)c2cccc(NS(C)(=O)=O)c2O[C@@H]1CN(C)Cc1ccc(-c2ccccc2)cc1 | 1 ± 0.078 |  |
| C/C=C/c1ccc([C@H]2[C@H](CO)N(S(C)(=O)=O)[C@H]2CNCC2CCC2)cc1 | 0.688 ± 0.08 |  |
| C[C@H](CO)N1C[C@H](C)[C@H](CN(C)S(=O)(=O)c2ccc(Cl)cc2)OCCCC[C@H](C)Oc2ccc(NC(=O)Nc3ccc(C(F)(F)F)cc3)cc2C1=O | 1.04 ± 0.065 |  |
| C[C@H]1CN([C@@H](C)CO)C(=O)c2cccc(NC(=O)c3cnccn3)c2O[C@H]1CN(C)C(=O)NC1CCCCC1 | 1.01 ± 0.033 |  |
| COc1ccccc1NC(=O)N1CCCCN2[C@H](C1)[C@@H](c1ccc(-c3cccc(C#N)c3)cc1)[C@@H]2CO | 0.961 ± 0.14 |  |
| C[C@@H]1CCCCO[C@@H](CN(C)Cc2ccc(C(F)(F)F)cc2)[C@H](C)CN([C@H](C)CO)C(=O)c2cc(NC(=O)Nc3cccc4ccccc34)ccc2O1 | 1.07 ± 0.18 |  |
| CO[C@@H]1CN(C)C(=O)c2cc(NC(=O)Nc3cccc(Cl)c3)ccc2OC[C@@H](C)N(C(=O)Nc2c(C)noc2C)C[C@H]1C | 1.052 ± 0.0092 |  |
| COCC(=O)N1CC[C@@]2(CC1)CN[C@H](CO)c1c2c2ccc(OC)cc2n1C | 1.03 ± 0.052 |  |

| Compound | viability index [1] | viability index (library set: Broad Institute Blood Stage) |
| --- | --- | --- |
| CCCNC(=O)N1[C@@H]2CNC[C@H]1[C@@H]2c1ccc(-c2ccccc2)cc1 | 0.926 ± 0.042 |  |
| CCS(=O)(=O)Nc1ccc2c(c1)C(=O)N(C)[C@H]1CC[C@@H](CC(=O)NC3CCCCC3)O[C@H]1CO2 | 0.985 ± 0.018 |  |
| N#C[C@@H]1[C@H](c2ccccc2-c2cccc(F)c2)[C@@H](CO)N1C(=O)C1CC1 | 1.1 ± 0.022 |  |
| CCCNC(=O)N(C)C[C@H]1Oc2ncc(C#CC3CCCCC3)cc2C(=O)N([C@H](C)CO)C[C@H]1C | 0.975 ± 0.057 |  |
| CC(C)NC(=O)NCC[C@@H]1CC[C@@H](NS(=O)(=O)c2ccc(Oc3ccccc3)cc2)[C@H](CO)O1 | 1.071 ± 0.0073 |  |
| N#C[C@@H]1[C@H](c2ccccc2C2=CCCCC2)[C@@H](CO)N1S(=O)(=O)c1ccccc1 | 1.16 ± 0.063 |  |
| N#C[C@H]1[C@H](c2ccc(C#Cc3ccc(F)cc3)cc2)[C@H](CO)N1C(=O)Cc1ccncc1 | 1.02 ± 0.03 |  |
| CCCNC(=O)N1C[C@H](O)COC[C@@H]2O[C@@H](CC(=O)OC)CC[C@H]21 | 1.05 ± 0.024 |  |
| COCC(=O)N1[C@@H](CO)[C@@H](c2ccc(-c3ccccc3OC)cc2)C12CN(C(C)=O)C2 | 1.09 ± 0.092 |  |
| CCS(=O)(=O)Nc1ccc2c(c1)C(=O)N(C)[C@@H]1CC[C@@H](CC(=O)NCc3ccccc3F)O[C@H]1CO2 | 1.13 ± 0.043 |  |
| N#C[C@H]1[C@@H](c2ccc(C3=CCCCC3)cc2)[C@H](CO)N1C(=O)CN1CCOCC1 | 1.11 ± 0.052 |  |
| COc1ccc2c3c([C@H](CO)N(C[C@]33CN(C3)S(=O)(=O)c3cn(C)cn3)C(=O)Nc3ccc(F)cc3)n(C)c2c1 | 1.114 ± 0.0043 |  |
| O=C(Cc1cccnc1)N1CC(=O)N2[C@H](CO)[C@@H](c3ccc(/C=C/c4ccccc4)cc3)[C@@H]2C1 | 0.981 ± 0.018 |  |
| N#C[C@H]1[C@@H](c2ccc(C3=CCCC3)cc2)[C@@H](CO)N1C(=O)c1ccccn1 | 1.07 ± 0.067 |  |
| C[C@@H]1CCCCO[C@@H](CN(C)C(=O)Nc2ccccc2)[C@@H](C)CN([C@H](C)CO)C(=O)c2cc(NC(=O)Nc3ccccc3)ccc2O1 | 1.13 ± 0.075 |  |
| COc1ccc(CN2C[C@H](O)COC[C@@H]3O[C@H](CC(=O)N(C)C)CC[C@H]32)cc1 | 1.08 ± 0.1 |  |
| O=C(C[C@@H]1CC[C@@H]2[C@H](COC[C@@H](O)CN2C(=O)c2ccc(F)cc2)O1)N1CCCCC1 | 1.057 ± 0.0034 |  |
| CO[C@@H]1CC[C@H]2CCOc3ccc(C#N)cc3C(=O)N(C)C[C@H](c3ccccc3)CC(=O)N(C)C[C@H]1O2 | 1.02 ± 0.04 |  |
| CCC(=O)Nc1ccc2c(c1)OC[C@@H](C)N(Cc1ccccc1)C[C@H](C)[C@H](OC)CN(C)C2=O | 1.04 ± 0.032 |  |
| O=C1CNC[C@H]2[C@@H](c3ccc(C4=CCCC4)cc3)[C@@H](CO)N12 | 1.061 ± 0.0039 |  |
| CCCNC(=O)N1C[C@@H]2[C@H](c3ccccc31)[C@@H](CO)N2C(=O)Nc1ccccc1F | 1.057 ± 0.0068 |  |
| C[C@@H]1CN([C@@H](C)CO)C(=O)c2cc(NS(=O)(=O)c3cn(C)cn3)ccc2O[C@@H](C)CCCCO[C@@H]1CN(C)C(=O)Nc1ccc(C(F)(F)F)cc1 | 1.06 ± 0.083 |  |
| CN1C(=O)c2cc(NC(=O)Cc3cccs3)ccc2OC[C@@H]2O[C@@H](CC(=O)NCC3CCCCC3)CC[C@H]21 | 1.14 ± 0.17 |  |

| Compound | viability index [1] | viability index (library set: Broad Institute Blood Stage) |
| --- | --- | --- |
| CCS(=O)(=O)Nc1ccc2c(c1)C(=O)N(C)C[C@H](OC)[C@@H](C)CN(C(=O)c1ccc3c(c1)OCO3)[C@@H](C)CO2 | 1.11 ± 0.029 |  |
| C[C@H](CO)N1C[C@H](C)[C@@H](CN(C)C(=O)Nc2ccccc2C(F)(F)F)OCc2ccccc2-c2c(n(C)c3ccccc23)C1=O | 0.9944 ± 0.009 |  |
| O=C(O)[C@H]1[C@H](CO)[C@H]2Cn3c(ccc(C4=CCCCC4)c3=O)[C@H]2N1Cc1ccc2c(c1)OCO2 | 1.01 ± 0.026 |  |
| C[C@@H]1CCCCO[C@H](CN(C)S(=O)(=O)c2cn(C)cn2)[C@@H](C)CN([C@@H](C)CO)C(=O)c2cc(N(C)C)ccc2O1 | 1.16 ± 0.023 |  |
| CC(=O)N1CC2(C1)[C@@H](c1ccccc1)[C@@H](CO)N2C(=O)c1cnccn1 | 1.07 ± 0.036 |  |
| CCCNC(=O)N(C)C[C@H]1Oc2cc(C#C[C@H](C)O)ccc2S(=O)(=O)N([C@@H](C)CO)C[C@H]1C | 1.03 ± 0.034 |  |
| O=C(Nc1cc(F)ccc1F)N1CCCCN2[C@H](CO)[C@H](c3ccc(C4=CCCCC4)cc3)[C@H]2C1 | 0.686 ± 0.018 |  |
| C[C@H]1CN([C@@H](C)CO)C(=O)c2cc(C#CC3(O)CCCC3)cnc2O[C@@H]1CN(C)S(=O)(=O)c1cccc(F)c1 | 1.04 ± 0.019 |  |
| COc1cccc(-c2ccc3c(c2)[C@H]2[C@H](CCN2S(=O)(=O)c2ccccc2F)[C@@H](CO)N3)c1 | 0.932 ± 0.097 |  |
| O=C(C1CCCCC1)N1CC(=O)N2[C@H](CO)[C@@H](c3ccc(-c4ccccc4F)cc3)[C@H]2C1 | 1.08 ± 0.025 |  |
| CN(C[C@H]1N[C@@H](CO)[C@H]1c1ccc(-c2cccc(F)c2)cc1)C(=O)CC1CC1 | 0.977 ± 0.086 |  |
| COc1ccc2c3c([nH]c2c1)[C@@H](CO)N(C[C@]31CN(Cc2ccc(F)cc2)C1)C(=O)NC(C)C | 1.03 ± 0.034 |  |
| COCC(=O)N1[C@H](CNC(=O)c2ccccn2)[C@@H](c2ccccc2)[C@@H]1CO | 1.011 ± 0.0052 |  |
| C[C@H](CO)N1C[C@H](C)[C@@H](CN(C)S(C)(=O)=O)Oc2ccc(NC(=O)NC3CCCCC3)cc2C1=O | 1.03 ± 0.028 |  |
| Cc1ccccc1-c1ccc([C@H]2[C@H]3CNC[C@@H]2N3C(=O)Nc2ccc(F)cc2)cc1 | 1.02 ± 0.027 |  |
| O=C(O)C[C@H]1C[C@H]2c3cc(NC(=O)Nc4ccc(C(F)(F)F)cc4)ccc3O[C@H]2[C@@H](CO)O1 | 1.06 ± 0.041 |  |
| O=C(C[C@@H]1C[C@H]2c3cc(NC(=O)Nc4ccccc4)ccc3O[C@H]2[C@H](CO)O1)NCc1ccccc1 | 1.058 ± 0.0017 |  |
| O=C(C1CCOCC1)N1CC(=O)N2[C@H](CO)[C@H](c3ccc(-c4cccnc4)cc3)[C@H]2C1 | 0.987 ± 0.09 |  |
| O=C(c1cnccn1)N1CC(=O)N2[C@H](CO)[C@@H](c3ccc(C#CC4CC4)cc3)[C@@H]2C1 | 1.002 ± 0.0097 |  |
| CO[C@H]1CN(C)C(=O)c2cc(NC(=O)C3CC3)ccc2OC[C@H](C)N(Cc2cc(F)ccc2F)C[C@H]1C | 0.871 ± 0.12 |  |
| C[C@H]1CN([C@@H](C)CO)C(=O)CCCn2nncc2CO[C@H]1CN(C)S(=O)(=O)c1ccc(Oc2ccccc2)nc1 | 1.08 ± 0.033 |  |
| N#Cc1ccc(-c2ccc([C@@H]3[C@@H]4CN(C(=O)Nc5ccc6c(c5)OCO6)C[C@H]3N4)cc2)cc1 | 0.56 ± 0.15 |  |
| O=C(Nc1ccccc1)N1C[C@@H]2N[C@H](C1)[C@H]2c1ccc(-c2ccccc2F)cc1 | 1.1 ± 0.05 |  |
